PubChem BioAssay AID1508623 (National Center for Advancing Translational Sciences (NCATS), 2021)
About 450 (0.94%) of roughly 48,000 compounds were called active. Not shown: some 19% with an inconclusive outcome. Calls follow the shape of the dose curve; as a rule, active = well fitted inhibition curve with a large enough effect; inconclusive = small, poorly fitted or top-dose-only effect; inactive = no such curve, though single readings can be large or run the other way. The list shows a part of the results.

Assay: Primary qHTS for Identification of Small Molecule Inhibitors of Huntingtin Promoter Activity; also: nearly all actives have a fitted effect of over 50% in size
Conditions: HEK293 HTT promoter firefly luciferase reporter (activity 0% = vehicle and -100% = no light), 24 h; series mostly up to 57.5 µM; activity change, negative = inhibition: at the top concentration
Procedure, shortened: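 HEK293 cells carrying firefly luciferase reporters were seeded at 2,500 per well in Opti-MEM and cultured for 24 h. They were then treated with compounds at up to 57.5 uM final for 24 h at 37 degrees C before Dual-Glo luminescence readout.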
Potency is read from the fitted curve at half-maximal effect.

Row | SMILES | activity change, negative = inhibition | Potency
1 | Cn1ncc2c(Nc3cccc(F)c3)ncnc21 | inactive: -25.5% | 
2 | O=C(Nc1c(C(=O)Nc2ccccc2F)oc2ccccc12)c1cc2ccccc2o1 | inactive: -9.71% | 
3 | COc1ccc(C2CNC(=O)C2)cc1OC1CCCC1 (stereo unspecified) | inactive | 
4 | COc1cc(C(CC(=O)NCCC(C)C)N2Cc3ccccc3C2=O)cc(OC)c1OC (stereo unspecified) | inactive: -21.6% | 
5 | COc1cc(NC(=O)CN2CCN(CC(=O)Nc3ccc(F)cc3)CC2)cc(OC)c1 | inactive: -4.13% | 
6 | COc1cc(NC(=O)Cn2c(=O)n(Cc3ccco3)c(=O)c3oc4ccccc4c32)cc(OC)c1 | inactive: -7.57% | 
7 | Cc1ccc(-c2nc(Cn3c(=O)cc(-c4ccccc4)c4c(C)nn(C)c43)c(C)o2)cc1 | inactive: 0.36% | 
8 | O=C(CSc1nnc(-c2ccc([N+](=O)[O-])cc2)o1)Nc1ccccc1 | inactive: 66.7% | 
9 | CN(C1CCCCC1)S(=O)(=O)c1ccc2c(c1)c(=O)c(C(=O)N1CCN(c3ccccc3F)CC1)cn2C | inactive: 3.14% | 
10 | CCOc1ccc(NC(=O)c2cc(=O)c3ccc(C)c(C)c3o2)cc1 | inactive: -10.6% [at 11.5 µM] | 
11 | Cn1cnc(S(=O)(=O)N2CCC(C(=O)N3CCN(c4ccccc4F)CC3)CC2)c1 | inactive: -8.88% | 
12 | CSc1cccc(NS(=O)(=O)c2cn(C)c(C)n2)c1 | inactive: -3.69% | 
13 | CCOc1ccc2c(c1)NC(c1cccs1)=NC(c1ccc(F)cc1)=N2 | inactive: -2.57% | 
14 | CCN(c1ccccc1)c1nnc(NC(=O)Nc2ccc(Br)cc2F)s1 | inactive: 5.89% | 
15 | O=C(Nc1ccc(Br)cc1F)N1CCC2(CC1)Oc1ccccc1C(=O)N2Cc1ccccc1F | inactive: 38.1% | 
16 | COc1ccc(C2C(C(=O)Nc3ccc(C)cc3C)=C(C)Nc3nc4ccccc4n32)c(OC)c1 (stereo unspecified) | inactive: -18.7% | 
17 | COc1ccc2occ(CC(=O)Nc3ccc(S(=O)(=O)Nc4nc(C)cc(C)n4)cc3)c2c1 | inactive: -11.2% | 
18 | O=C1CSC2(C(=O)N(Cc3ccccc3)c3ccccc32)N1c1ccc(Cl)cc1 (stereo unspecified) | inactive: -5.3% | 
19 | CCC(C)NC(=O)C1=CC(c2ccc3c(c2)OCO3)=NS(=O)(=O)N1C (stereo unspecified) | inactive: -13.8% | 
20 | CC(C)(C)c1ccc(C(=O)N2CCCCC2CCN2CCCCC2)cc1 (stereo unspecified) | inactive: -11% | 
21 | O=C(CN1C(=O)COc2ccc(S(=O)(=O)Nc3ccccc3)cc21)Nc1cccc(Cl)c1 | inactive: -21.6% | 
22 | COc1cccc2c1Oc1ncccc1N(C(=O)CCC(=O)NCc1ccccc1Cl)C2 | inactive: -10.5% | 
23 | COC(=O)c1ccc(Cn2nnc3c(=O)[nH]c(C4CCCN(S(=O)(=O)c5cccc(Cl)c5)C4)nc32)cc1 (stereo unspecified) | inactive: -25.5% | 
24 | Cc1ccccc1CSc1ncc(CO)n1Cc1ccc(F)cc1 | inactive: -7.83% | 

Row | SMILES | activity change, negative = inhibition | Potency
25 | CCOc1ccc(-c2cc(-c3nc(-c4ccc(OC)c(OC)c4)no3)[nH]n2)cc1 | inactive: -11.5% | 
26 | COc1ccc(Cc2nc3ccccc3n2Cc2ccccc2F)cc1 | inactive: -9.95% | 
27 | CC(=O)c1ccc(NC(=O)CC(c2cccs2)N2Cc3ccccc3C2=O)cc1 (stereo unspecified) | inactive: 14.9% | 
28 | CCN(C(=O)Cn1cnc2sc(C)c(S(=O)(=O)N3CCN(c4ncccn4)CC3)c2c1=O)c1ccccc1F | inactive: -14.1% | 
29 | Cc1cc(Cl)ccc1OCC(=O)N(Cc1ccco1)Cc1ccco1 | inactive: -5.46% | 
30 | COc1ccc(-c2cn3cccnc3n2)cc1NC(=O)c1cc(C)cc(C)c1 | inactive: 4.29% | 
31 | Cc1ccc(-n2ncc(C(=O)N3CCN(c4ccc(Cl)cc4)CC3)c2C2CCN(C(=O)OC(C)(C)C)CC2)c(C)c1 | inactive: -10.9% | 
32 | CC(O)CNc1nc2c(c(=O)n(Cc3ccc(Cl)cc3)c(=O)n2C)n1C (stereo unspecified) | inactive: -26.9% | 
33 | Cc1cc2c(cc1S(=O)(=O)CCC(=O)NCCc1ccccc1)OCC(=O)N2 | inactive: -1.05% | 
34 | CCC1CN(C(=O)Nc2ccc(C)c(F)c2)c2ccccc2S1 (stereo unspecified) | inactive: 34.8% | 
35 | CCOc1ccc(-c2nnc(SCC(=O)NCc3ccccc3)o2)cc1 | inactive: -28.4% | 
36 | CC(C)(C)C(=O)NC1(C(F)(F)F)C(=O)Nc2c1c(=O)[nH]c(=O)n2-c1ccccc1 (stereo unspecified) | inactive: -13.6% | 
37 | Cc1nnc(N2CCC(C(=O)NCCc3ccccc3)CC2)c2nn(-c3ccc(Cl)cc3)c(C)c12 | inactive: -11.3% | 
38 | CCOc1ccc(-n2nc3cc(C)c(NC(=O)c4cc(OCC)c(OCC)c(OCC)c4)cc3n2)cc1 | inactive: -6.75% [at 11.5 µM] | 
39 | CCN(CC)c1ccc(NC(=O)c2sc3nc4c(cc3c2N)CN(C)CC4)cc1 | inactive: -10.7% | 
40 | O=C(Nc1ccc2nc(SCC(=O)N3CCc4ccccc43)sc2c1)c1cccc(Cl)c1 | inactive: -17.8% | 
41 | COc1cc(OC)c(OC)cc1CNc1sc2c(c1C(=O)Nc1ccccc1OC)CCC2 | inactive: -16.9% | 
42 | CN(C(=O)CCS(=O)(=O)c1cc2c(cc1Cl)NC(=O)CO2)C1CCCCC1 | inactive: -7.05% | 
43 | Cc1nncn1-c1ccc(C(=O)Nc2cc(F)ccc2F)cc1 | inactive: 4.69% | 
44 | Cc1ccc(CCNC(=O)CCS(=O)(=O)c2cc3c(cc2C)NC(=O)CO3)cc1 | inactive: -15.4% | 
45 | COc1ccc(C)cc1NS(=O)(=O)c1cc2c3c(c1)CC(=O)N3CCC2 | inactive: -12% | 
46 | CCn1c(=N)c(C(=O)NC2CCCCC2)cc2c(=O)n3cc(C)ccc3nc21 | inactive: 6.16% | 
47 | COc1ccc(-n2c(=O)c3ccccc3n(CC(=O)NCCc3ccc(OC)c(OC)c3)c2=O)cc1 | inactive: -13.9% | 
48 | COc1ccc(NC(=O)c2cc3c(=O)n(Cc4cccnc4)ccc3nc2C)cc1OC | inactive: -6.98% | 

Row | SMILES | activity change, negative = inhibition | Potency
49 | COc1ccc(-n2ncc(C(=O)Nc3cccc(C(F)(F)F)c3)c2C2CCN(C(=O)OC(C)(C)C)CC2)cc1 | inactive: -17.6% | 
50 | CCOCCCN(Cc1ccco1)S(=O)(=O)c1cc2c(cc1C)NC(=O)CO2 | inactive: -3.29% | 
51 | Cc1ccc(C2=Nc3ccccc3N(CC(=O)NCc3ccccc3Cl)C(=O)C2)cc1C | inactive: 50.8% | 
52 | COc1ccc(N2Cc3cccc(C(=O)Nc4ccc(F)cc4)c3C2=O)cc1 | inactive: -17.8% | 
53 | CCN1CCCC1CN (stereo unspecified) | inactive: -9.71% | 
54 | O=C(Nc1c(C(=O)N2CCN(c3ccccc3)CC2)oc2ccccc12)c1ccco1 | inactive: -32.3% | 
55 | O=C(C=CC=Cc1ccc2c(c1)OCO2)N1CCCCC1 | inactive: 22.5% | 
56 | Cc1c(C(=O)NCCc2ccc(Cl)cc2)sc2nc3n(c(=O)c12)CCCC3 | inactive: -2.99% | 
57 | CC(C)C(=O)NCC(c1ccc2c(c1)OCO2)N1CCN(c2ccccc2)CC1 (stereo unspecified) | inactive: -19.4% | 
58 | Cc1ccccc1CN1c2ccccc2-c2nc(SCC(=O)NCc3ccccc3)ncc2S1(=O)=O | inactive: -31.5% | 
59 | COc1ccc(CCNC(=O)C(=O)NCC(c2ccc3c(c2)OCO3)N2CCOCC2)cc1OC (stereo unspecified) | inactive: -4.74% | 
60 | Cc1cccc(-c2noc(CSc3nc(-c4ccc(F)cc4)cc(=O)[nH]3)n2)c1 | inactive: 24.5% | 
61 | Cc1cccn2c(=O)c(C(=O)NCCc3ccccc3)c(O)nc12 | inactive: 50.3% | 
62 | CCOc1ccc(NC(=O)c2oc3ccccc3c2NC(=O)c2c(F)cccc2F)cc1 | inactive: -15.4% | 
63 | CCOc1ccc(NC(=O)C2CCCN(S(=O)(=O)c3ccc4[nH]c(=O)ccc4c3)C2)cc1 (stereo unspecified) | inactive: -17.1% | 
64 | Cc1ccc(NC(=O)C(=O)c2cc(C)n(-c3ccc(F)cc3)c2C)cc1C | inactive: -23.8% | 
65 | COc1cccc(-n2ccn(CC(=O)c3ccc(F)cc3)c(=O)c2=O)c1 | inactive: -18.1% | 
66 | COc1ccccc1N1CCN(C(=O)CSc2nc3ccccc3nc2Cc2ccccc2)CC1 | inactive: -6.3% | 
67 | O=C(O)C=Cc1ccc(Cn2ccnc2)cc1 | inactive: 15.6% | 
68 | Cc1ccc(CSC2=Nc3ccccc3C3=NC(CC(=O)NC4CCCCC4)C(=O)N23)cc1 (stereo unspecified) | inactive: 38.8% | 
69 | COc1ccc(CNC(=O)c2cc(Nc3ccc(C)cc3C)nc3ccccc23)cc1 | inactive: 7.98% | 
70 | CCCN(CCC)S(=O)(=O)c1ccc2c(c1)N(CC(=O)NC(C)c1ccccc1)C(=O)CS2 (stereo unspecified) | inactive: -12.7% | 
71 | Cc1ccc2nc(-c3ccc(NC(=O)COc4ccccc4)cc3)sc2c1 | inactive: 41.7% | 
72 | COc1ccccc1N1CCN(C(=O)c2cc(-c3ccc(F)cc3)on2)CC1 | inactive: -7.9% | 

Row | SMILES | activity change, negative = inhibition | Potency
73 | CC(=O)c1ccc(N2C(=O)N(CC(=O)c3ccc(C)cc3)c3ccccc3S2(=O)=O)cc1 | inactive: -23.2% | 
74 | Cc1ccc2oc(=O)c3cnn(CC(=O)N4CCN(c5ccccc5)CC4)c3c2c1 | inactive: 6.63% | 
75 | Cc1c(Cl)cccc1NC(=O)CCN1C(=O)c2ccccc2Sc2ncccc21 | inactive: -18.2% | 
76 | CCN(C(=O)Cn1nnc2sc(-c3ccccc3)cc2c1=O)c1cccc(C)c1 | inactive: -2.43% | 
77 | Cc1cc(NC(=O)CCNS(=O)(=O)c2ccc3c(c2)oc(=O)n3C)ccc1Br | inactive: -15.5% | 
78 | CCN(CC)C(=O)c1cc(-c2ccc(Cl)cc2)on1 | inactive: 50.2% | 
79 | O=C(Nc1ccc(F)cc1F)c1cc2nc(-c3ccco3)cc(C(F)(F)Cl)n2n1 | inactive: -5.99% | 
80 | COC(=O)c1cnn2c(C)c(Cc3c(C)cc(C)cc3C)c(C)nc12 | inactive: -0.54% | 
81 | COc1ccc(NC(=O)CCn2c(=O)c3cccn3c3ccccc32)c(OC)c1 | inactive: -1.97% | 
82 | CCC1CN(C(=O)Nc2cccc3c2CCCC3)c2ccccc2O1 (stereo unspecified) | inactive: -34.5% | 
83 | Cc1ccc2c(=O)cc(C(=O)Nc3ccc(S(=O)(=O)N(C)Cc4ccccc4)cc3)oc2c1 | inactive: -4.17% | 
84 | CCN(CC)S(=O)(=O)c1ccc2c(c1)c(=O)c(C(=O)N1CCN(c3cccc(C)c3)C(C)C1)cn2C (stereo unspecified) | inactive: 2.35% | 
85 | Cc1ccc(CNC(=O)CN(c2ccc(C)cc2)S(=O)(=O)c2c(C)nn(C)c2C)cc1 | inactive: -14.1% | 
86 | CC(=O)c1ccc(NC(=O)CN(C)S(=O)(=O)c2cccc3nsnc23)cc1 | inactive: -6.02% | 
87 | COc1ccccc1-c1cc2nc(C)c(CCC(=O)NCc3cccc(Cl)c3)c(C)n2n1 |  | active: 12.6 µM
88 | CCCCn1c(C(C)NC(=O)c2ccccc2)nc2ccccc21 (stereo unspecified) | inactive: -26.5% | 
89 | COc1ccc(N2CC(NC(=O)C3CC3)CC2=O)cc1OC (stereo unspecified) | inactive: -12.1% | 
90 | Cc1c(C(=O)Nc2ccc(F)cc2)sc2nc[nH]c(=O)c12 | inactive: 43.4% | 
91 | CC(C)CCn1c(=O)c2sccc2n2c(CCCC(=O)NCc3ccc(F)cc3)nnc12 | inactive: -23.7% | 
92 | Fc1cccc(-n2ncc3c2ncn2nc(-c4ccccc4Cl)nc32)c1 | inactive: 1.42% | 
93 | O=C(Cn1c(=O)c2cccn2c2ccc(F)cc21)N1CCN(c2ccc(F)cc2)CC1 | inactive: -12.7% | 
94 | Cc1cccc(N2CCN(C(=O)CCn3c(=O)c4cccn4c4cccnc43)CC2)c1C | inactive: -6.32% | 
95 | Cc1ccn2c(=O)c(C(=O)NC(C)c3ccccc3)c(O)nc2c1 (stereo unspecified) | inactive: 1.88% | 
96 | COc1ccccc1N1CCN(C(=O)c2cc(-c3ccccc3O)on2)CC1 | inactive: -10.3% [at 11.5 µM] | 
